In all, about 310,000 compounds went through this assay and about 2,200 (0.71%) showed an effect of 50% or more. The effect is printed as a negative number. Some of the results follow.

This assay deals with human ether-à-go-go-related gene (hERG) potassium channel (human, UniProt Q12809). As to the kind of experiment: primary screen, population patch clamp on CHO cells stably expressing hERG.
Sequence of human ether-à-go-go-related gene (hERG) potassium channel (Q12809 whole entry, looked up): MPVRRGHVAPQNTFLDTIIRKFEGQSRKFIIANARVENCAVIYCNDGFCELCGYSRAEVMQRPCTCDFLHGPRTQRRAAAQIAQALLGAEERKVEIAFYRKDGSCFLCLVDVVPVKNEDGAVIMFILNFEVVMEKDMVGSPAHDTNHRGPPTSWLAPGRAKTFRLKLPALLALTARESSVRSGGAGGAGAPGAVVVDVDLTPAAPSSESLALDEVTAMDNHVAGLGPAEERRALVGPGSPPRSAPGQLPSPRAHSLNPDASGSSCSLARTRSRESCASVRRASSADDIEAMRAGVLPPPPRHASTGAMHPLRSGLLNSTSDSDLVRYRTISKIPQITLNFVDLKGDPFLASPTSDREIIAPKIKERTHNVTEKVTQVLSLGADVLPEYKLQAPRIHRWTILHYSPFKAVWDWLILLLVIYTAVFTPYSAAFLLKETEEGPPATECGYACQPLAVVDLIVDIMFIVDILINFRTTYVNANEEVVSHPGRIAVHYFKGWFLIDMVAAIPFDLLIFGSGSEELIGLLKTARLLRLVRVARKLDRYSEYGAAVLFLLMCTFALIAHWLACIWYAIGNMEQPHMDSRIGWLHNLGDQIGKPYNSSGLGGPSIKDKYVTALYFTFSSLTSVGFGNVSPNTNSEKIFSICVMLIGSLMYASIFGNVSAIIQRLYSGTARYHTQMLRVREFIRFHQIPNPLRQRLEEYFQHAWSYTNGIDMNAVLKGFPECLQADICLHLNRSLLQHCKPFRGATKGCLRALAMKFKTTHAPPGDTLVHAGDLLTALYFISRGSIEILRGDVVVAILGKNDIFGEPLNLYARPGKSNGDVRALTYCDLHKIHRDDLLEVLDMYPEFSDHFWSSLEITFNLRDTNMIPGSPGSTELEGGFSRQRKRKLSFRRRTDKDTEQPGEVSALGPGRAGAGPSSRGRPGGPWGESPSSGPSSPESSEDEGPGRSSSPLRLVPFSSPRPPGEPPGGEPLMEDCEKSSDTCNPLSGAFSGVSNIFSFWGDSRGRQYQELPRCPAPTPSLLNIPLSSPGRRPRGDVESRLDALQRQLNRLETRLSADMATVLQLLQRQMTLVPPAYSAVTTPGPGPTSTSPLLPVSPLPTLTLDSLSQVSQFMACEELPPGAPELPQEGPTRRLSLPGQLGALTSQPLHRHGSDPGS
Take `CC1CCN(C(=O)c2nc[nH]c2C(=O)N2CCc3ccccc3C2)CC1`: the “hERG current change (%, negative = inhibition) at 1uM” value was determined as 12.6%. `CC(C)C(OC(=O)CN1C(=O)c2ccccc2C1=O)C(=O)NC1CCCCC1` (stereo not shown): the “hERG current change (%, negative = inhibition) at 1uM” value came to 14.9%. Take `O=C(CCc1ccccc1)Nc1ccnn1C1CCN(Cc2ccc(OCCO)cc2)CC1`: the “hERG current change (%, negative = inhibition) at 1uM” value is on record as -9.11%. For `COc1ccc(C([O-])=Nc2ccc[n+](-c3nc4ccccc4nc3NS(=O)(=O)c3ccccc3)c2)cc1`, the “hERG current change (%, negative = inhibition) at 1uM” value was found to be 11.9%. Then `COc1ccc(CCn2c(C)cc(C(=O)CSc3nnc(N)s3)c2C)cc1`, with 5.57%; and `CC(C)c1nc2c(c(=O)c3ccccc3n2C)c(=O)n1-c1ccc(F)cc1`, with 1.11%. Consider `CC(=O)NCCn1c(SCC(=O)NCCC2=CCCCC2)nc2ccccc2c1=O`, for which the “hERG current change (%, negative = inhibition) at 1uM” value was -11.4%. For the compound `Cc1nc2cc(NC(=O)NCc3ccco3)ccc2o1`, the “hERG current change (%, negative = inhibition) at 1uM” value was 16.3%. Turning to `Cc1ccc(C)c(NC(=S)N(C)CCc2ccccn2)c1`, the “hERG current change (%, negative = inhibition) at 1uM” value turned out to be 11.5%. In the case of `CC(=O)Nc1ccc(C(=O)OCC(=O)c2ccc(C)c([N+](=O)[O-])c2)cc1`, the “hERG current change (%, negative = inhibition) at 1uM” value is listed as 9.37%. Consider `O=C(Nc1ccc2ccccc2c1)/C(=C/c1cccc(Br)c1)NC(=O)c1ccco1`, for which the “hERG current change (%, negative = inhibition) at 1uM” value is given as -17.8%.

On to `O=C(O)c1ccc(-n2nnnc2SCc2ccccc2Br)cc1`, for which the “hERG current change (%, negative = inhibition) at 1uM” value stood at 12%. As to `CCOC(=O)C1CCCN(C(=O)c2cc(S(=O)(=O)N3CCCCC3)c[nH]2)C1` (stereo not shown), the “hERG current change (%, negative = inhibition) at 1uM” value is on record as 9%. For `CCOc1cc(C(C(=O)NCC2CCCO2)N(C(=O)Cn2nnc3ccccc32)c2ccc(C(C)=O)cc2)ccc1O` (stereo not shown), the “hERG current change (%, negative = inhibition) at 1uM” value came out at 4.08%. As to `COc1ccc(-n2c(COc3ccc(C)cc3)nnc2SCC(N)=O)cc1`, the “hERG current change (%, negative = inhibition) at 1uM” value stood at 5.37%. For the compound `CCN(CC)S(=O)(=O)c1cccc(NC(=O)Nc2cccc(C(F)(F)F)c2)c1`, the “hERG current change (%, negative = inhibition) at 1uM” value was -8.7%. For `CCc1ccccc1Nc1ncnc2ccccc12.Cl`, the “hERG current change (%, negative = inhibition) at 1uM” value came to 16.9%. As for `Cc1ccc(C)c(NC(=O)CN(C)C(=O)c2ccc(-c3ccc(Cl)cc3)o2)c1`, the “hERG current change (%, negative = inhibition) at 1uM” value came out at 10.1%. For `COc1cccc2c1OC[C@@H](CO)[C@H]2N(C)C(=O)Nc1ccc(Cl)cc1Cl` the value was -3.21%.

In the case of `O=C(NCc1ccccc1Cl)c1cc([N+](=O)[O-])ccc1Cl`, the “hERG current change (%, negative = inhibition) at 1uM” value is recorded as 7.84%.

Regarding `O=C(NCc1ccccc1Cl)c1ccc(-c2ccccc2)cc1`, the “hERG current change (%, negative = inhibition) at 1uM” value came out at 7.76%.

Consider `CCC(CC)C(=O)N1CCN(Cc2nc3ccccc3c(=O)[nH]2)CC1`, for which the “hERG current change (%, negative = inhibition) at 1uM” value worked out at 6.77%. Take `CC(CCc1ccccc1)NC(=O)c1ccc(NC(=O)c2ccccc2)cc1` (stereo not shown): the “hERG current change (%, negative = inhibition) at 1uM” value is given as 11.5%. On to `CCC(C)[C@H](NC(=O)N1c2ccccc2NC(=O)[C@@H]1C(C)C)C(=O)N[C@@H](Cc1ccccc1)C(=O)O` (stereo partly shown), for which the “hERG current change (%, negative = inhibition) at 1uM” value stood at 12.4%. Take `Cc1cc(NN)nc(NS(=O)(=O)c2ccccc2)n1`: the “hERG current change (%, negative = inhibition) at 1uM” value was found to be 21.1%. Turning to `O=S(=O)(c1ccccc1)c1nnn2c1nc(NC1CCN(Cc3ccccc3)CC1)c1cc(Cl)ccc12`, the “hERG current change (%, negative = inhibition) at 1uM” value came to 9.66%. With `O=C(CCC(=O)N1C[C@H]2C[C@@H](C1)c1cccc(=O)n1C2)NCc1ccccc1C(F)(F)F`, the “hERG current change (%, negative = inhibition) at 1uM” value is on record as -3.34%. Consider `CCn1cnc2scc(-c3ccccc3)c2c1=O`, for which the “hERG current change (%, negative = inhibition) at 1uM” value stood at 8.79%.

As for `CC(=O)N1N=C(c2ccc(Br)cc2)OC12CCCC2`, the “hERG current change (%, negative = inhibition) at 1uM” value is 14.7%. `Cc1cccc(C)c1NC(=S)/N=C/N(C)C`: the “hERG current change (%, negative = inhibition) at 1uM” value amounted to 12.9%.

On to `Cc1cc(C(=O)CN2CCN(CC(=O)Nc3cccc(F)c3)CC2)c(C)n1C1CC1`, for which the “hERG current change (%, negative = inhibition) at 1uM” value is listed as -7.82%. For `CCN(CC)C(=O)C1CCCN(Cc2ccc(OC)c(C)c2)C1` (stereo not shown) the value was 6.74%.

As to `COc1ccc(CCNC(=O)c2cc(-c3cc(C)ccc3O)n[nH]2)cc1OC`, the “hERG current change (%, negative = inhibition) at 1uM” value came out at 5.23%. For the compound `Cc1onc(-c2c(Cl)cccc2Cl)c1NC(=O)NN(C)c1ccc([N+](=O)[O-])cn1`, the “hERG current change (%, negative = inhibition) at 1uM” value is recorded as 6.64%. For `O=C(Nc1ccc(-c2nc3ccccc3o2)c(O)c1)c1cc(-n2cnnc2)ccc1Cl` the value was 7.67%; for `COc1ccc(NC(=O)c2cc(-c3ccco3)on2)cc1OC`, 14.2%. As for `O=C(C1CCC1)N1CCN(S(=O)(=O)c2ccc(F)cc2)CC1`, the “hERG current change (%, negative = inhibition) at 1uM” value stood at 12.3%. For `CCCCCC1CCC(C(=O)O)CC1` (stereo not shown) the value was 12.9%. Then `Cc1cccc2cc(CN(CC3CCCO3)C(=S)NCc3ccco3)c(=O)[nH]c12` (stereo not shown), with 15.4%; and `Cc1ccc(CSCC(=O)N(C)CC(=O)Nc2ccccc2Cl)cc1`, with 15.1%; and `Cc1cc(Cl)nc2ccc(Cc3ccc4nc(Cl)cc(C)c4c3)cc12`, with 3%. Regarding `Cc1cc(C)n(Cc2ccccc2Cl)n1`, the “hERG current change (%, negative = inhibition) at 1uM” value is 5.89%.

As to `O=C(CNC(=O)c1ccccc1F)OCCCOC(=O)CNC(=O)c1ccccc1F`, the “hERG current change (%, negative = inhibition) at 1uM” value worked out at 10.5%.

Source of the values: PMC4336329 (PLoS ONE, 2015).
